# Values joined by “and” are separate entries in the source; they are usually repeats but may differ in a detail not shown here. Equal entries are not always repeated. Whole data set: some 2,900 compounds, median “NF-kB SEAP reporter activity, fold change vs agonist alone” near 0.99, cut for the highest 2% near 2.6. The list shows a part of the results.
# Assays:
# RAW-Dual [1] = test: NF-kB SEAP reporter activity, fold change vs agonist alone; higher = enhanced NF-kB activity
# How it was run: (§1)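 After 50 nL of library stock was delivered by pin tool to RAW-Dual macrophages (50,000 cells/well, DMEM, 384-well plates), a PRR agonist was added 1 h later and the plates were kept at 37 °C, 5% CO2. Twenty hours later, IRF was read from supernatant by QuantiLuc luminescence and NF-κB by QuantiBlue absorbance at 620 nm. Reporter activity is stated as fold change over agonist-alone wells. Wells with IncuCyte confluency under 70% of agonist controls in both mask sets were counted as cytotoxic.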
# RAW-Dual [2] = test: NF-kB SEAP reporter activity, fold change vs agonist alone; cytotoxicity flag (confluency mask): not cytotoxic; higher = enhanced NF-kB activity
# How it was run: as §1
# RAW-Dual [3] = test: NF-kB SEAP reporter activity, fold change vs agonist alone; cytotoxicity flag (confluency mask): cytotoxic (confluency <70% of control); higher = enhanced NF-kB activity
# How it was run: as §1
# [4] = library stock concentration (final ~1000-fold dilution): 10 mM, cytotoxicity flag (confluency mask): not cytotoxic, agonist: Imiquimod (TLR7) […]
# [5] = library stock concentration (final ~1000-fold dilution): 10 mM, cytotoxicity flag (confluency mask): not cytotoxic, agonist: MPLA (TLR4) […]
# [6] = agonist: ODN 1826 (TLR9) 0.5 ug/mL
# [7] = agonist: Pam2CSK4 (TLR2/6) 0.1 ug/mL
# [8] = agonist: Pam3CSK4 (TLR2/1) 0.1 ug/mL
# [9] = library stock concentration (final ~1000-fold dilution): 2 mM, cytotoxicity flag (confluency mask): not cytotoxic, agonist: Imiquimod (TLR7) […]
# [10] = library stock concentration (final ~1000-fold dilution): 2 mM, cytotoxicity flag (confluency mask): not cytotoxic, agonist: MPLA (TLR4) […]
compound,measurement,setting,value
COc1c(O)cc2oc3cc(O)c(CC=C(C)C)c(O)c3c(=O)c2c1CC=C(C)C,NF-kB SEAP reporter activity,RAW-Dual [1]; [4],0.859
same,NF-kB SEAP reporter activity,RAW-Dual [1]; [5],0.885
CCCCc1nc(Cl)c(CO)n1Cc1ccc(-c2ccccc2-c2nnn[nH]2)cc1,NF-kB SEAP reporter activity,RAW-Dual [1]; [4],0.875
CCCCc1nc(Cl)c(CO)n1Cc1ccc(-c2ccccc2-c2nnn[nH]2)cc1 (library stock concentration (final ~1000-fold dilution): 10 mM),NF-kB SEAP reporter activity,RAW-Dual [2]; agonist: LPS (TLR4) 0.1 ug/mL,0.999 and 0.936
same,NF-kB SEAP reporter activity,RAW-Dual [2]; [6],0.938 and 1.01
same,NF-kB SEAP reporter activity,RAW-Dual [2]; [7],0.969 and 0.98
same,NF-kB SEAP reporter activity,RAW-Dual [2]; [8],1.2 and 1.07
Cc1nc2n(c(=O)c1CCN1CCC(c3noc4cc(F)ccc34)CC1)CCCC2O (stereo not drawn),NF-kB SEAP reporter activity,RAW-Dual [1]; [9],1.01
same,NF-kB SEAP reporter activity,RAW-Dual [1]; [10],1.01
Cc1nc2n(c(=O)c1CCN1CCC(c3noc4cc(F)ccc34)CC1)CCCC2O (stereo not drawn) (library stock concentration (final ~1000-fold dilution): 2 mM),NF-kB SEAP reporter activity,RAW-Dual [2]; agonist: LPS (TLR4) 0.1 ug/mL,1.18
same,NF-kB SEAP reporter activity,RAW-Dual [2]; [6],1.04
same,NF-kB SEAP reporter activity,RAW-Dual [2]; [7],1.13
same,NF-kB SEAP reporter activity,RAW-Dual [2]; [8],1.18
C=CCSCC=C,NF-kB SEAP reporter activity,RAW-Dual [1]; [5],1.06
C=CCSCC=C (library stock concentration (final ~1000-fold dilution): 10 mM),NF-kB SEAP reporter activity,RAW-Dual [2]; agonist: LPS (TLR4) 0.1 ug/mL,1.36
same,NF-kB SEAP reporter activity,RAW-Dual [2]; [6],0.968
same,NF-kB SEAP reporter activity,RAW-Dual [2]; [7],1.29
same,NF-kB SEAP reporter activity,RAW-Dual [2]; [8],1.33
CCN1CC(CCN2CCOCC2)C(c2ccccc2)(c2ccccc2)C1=O.Cl.O (stereo not drawn) (library stock concentration (final ~1000-fold dilution): 10 mM),NF-kB SEAP reporter activity,RAW-Dual [2]; agonist: LPS (TLR4) 0.1 ug/mL,1.04
same,NF-kB SEAP reporter activity,RAW-Dual [2]; [6],0.882
same,NF-kB SEAP reporter activity,RAW-Dual [2]; [7],1
same,NF-kB SEAP reporter activity,RAW-Dual [2]; [8],1.07
CCN1CC(CCN2CCOCC2)C(c2ccccc2)(c2ccccc2)C1=O.Cl.O (stereo not drawn),NF-kB SEAP reporter activity,RAW-Dual [1]; [4],0.97
same,NF-kB SEAP reporter activity,RAW-Dual [1]; [5],1.04
CC(NC(=O)Cc1cc(F)cc(F)c1)C(=O)NC1C(=O)N(C)c2ccccc2-c2ccccc21 (stereo not drawn) (library stock concentration (final ~1000-fold dilution): 10 mM),NF-kB SEAP reporter activity,RAW-Dual [2]; agonist: LPS (TLR4) 0.1 ug/mL,1.03
same,NF-kB SEAP reporter activity,RAW-Dual [2]; [6],1.01
same,NF-kB SEAP reporter activity,RAW-Dual [2]; [7],0.655
same,NF-kB SEAP reporter activity,RAW-Dual [2]; [8],0.894
CC(NC(=O)Cc1cc(F)cc(F)c1)C(=O)NC1C(=O)N(C)c2ccccc2-c2ccccc21 (stereo not drawn),NF-kB SEAP reporter activity,RAW-Dual [1]; [4],1.37
same,NF-kB SEAP reporter activity,RAW-Dual [1]; [5],1.06
C=CCNC1=C2CC(C)CC(OC)C(O)C(C)/C=C(\C)C(OC(N)=O)C(OC)/C=C\C=C(/C)C(=O)NC(=CC1=O)C2=O (stereo not drawn),NF-kB SEAP reporter activity,"RAW-Dual [1]; library stock concentration (final ~1000-fold dilution): 10 mM, cytotoxicity flag (confluency mask): cytotoxic (confluency <70% of control), agonist: Imiquimod (TLR7) […]",0.313
same,NF-kB SEAP reporter activity,"RAW-Dual [1]; library stock concentration (final ~1000-fold dilution): 10 mM, cytotoxicity flag (confluency mask): cytotoxic (confluency <70% of control), agonist: MPLA (TLR4) […]",0.516
C=CCNC1=C2CC(C)CC(OC)C(O)C(C)/C=C(\C)C(OC(N)=O)C(OC)/C=C\C=C(/C)C(=O)NC(=CC1=O)C2=O (stereo not drawn) (library stock concentration (final ~1000-fold dilution): 10 mM),NF-kB SEAP reporter activity,RAW-Dual [3]; agonist: LPS (TLR4) 0.1 ug/mL,0.289
same,NF-kB SEAP reporter activity,RAW-Dual [3]; [6],0.221
same,NF-kB SEAP reporter activity,RAW-Dual [3]; [7],0.0862
same,NF-kB SEAP reporter activity,RAW-Dual [3]; [8],0.182
C1CCN2CC3CC(CN4CCCCC34)C2C1.O.O.O.O.O.O=S(=O)(O)O (stereo not drawn),NF-kB SEAP reporter activity,RAW-Dual [1]; [4],0.917
same,NF-kB SEAP reporter activity,RAW-Dual [1]; [5],1.12
C1CCN2CC3CC(CN4CCCCC34)C2C1.O.O.O.O.O.O=S(=O)(O)O (stereo not drawn) (library stock concentration (final ~1000-fold dilution): 10 mM),NF-kB SEAP reporter activity,RAW-Dual [2]; agonist: LPS (TLR4) 0.1 ug/mL,0.906
same,NF-kB SEAP reporter activity,RAW-Dual [2]; [6],0.919
same,NF-kB SEAP reporter activity,RAW-Dual [2]; [7],1.1
same,NF-kB SEAP reporter activity,RAW-Dual [2]; [8],0.922
CCC(C)n1ncn(-c2ccc(N3CCN(c4ccc(OCC5COC(Cn6cncn6)(c6ccc(Cl)cc6Cl)O5)cc4)CC3)cc2)c1=O (stereo not drawn) (library stock concentration (final ~1000-fold dilution): 2 mM),NF-kB SEAP reporter activity,RAW-Dual [2]; agonist: LPS (TLR4) 0.1 ug/mL,1.59
same,NF-kB SEAP reporter activity,RAW-Dual [2]; [6],1.18
same,NF-kB SEAP reporter activity,RAW-Dual [2]; [7],1.41
same,NF-kB SEAP reporter activity,RAW-Dual [2]; [8],1.99
CCC(C)n1ncn(-c2ccc(N3CCN(c4ccc(OCC5COC(Cn6cncn6)(c6ccc(Cl)cc6Cl)O5)cc4)CC3)cc2)c1=O (stereo not drawn),NF-kB SEAP reporter activity,RAW-Dual [1]; [9],0.68
same,NF-kB SEAP reporter activity,RAW-Dual [1]; [10],1.39
